According to the supplement of paper PMC4967469:

These cell lines were tested with CC[C@H](Nc1ncnc2[nH]cnc12)c1nc2cccc(F)c2c(=O)n1-c1ccccc1 [CAL-101] (assay: Viability of human cancer cell lines after 72 h of drug (GDSC screen)).
Method: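 Human cancer cell lines in 384-well plates, medium with 10% serum, drug for 72 h over a 256-fold dose range (nine 2-fold or five 4-fold steps up to the top dose). Adherent lines were fixed and stained with the nucleic acid dye Syto60, suspension lines read with resazurin; signal relative to control wells, capped at 0 and 100%. One two-parameter sigmoid per drug and line, fitted in a mixed model over all curves with the slope shared within a line.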

Cell Line	AUC	IC50 [µM]
GB-1 (glioma, adherent, top dose 20 µM)	0.949	> 20
GCIY (stomach, adherent, top dose 20 µM)	0.979	> 20
GCT (soft tissue, adherent, top dose 20 µM)	0.989	> 20
GDM-1 (acute myeloid leukaemia, suspension, top dose 20 µM)	0.688	4.1
GI-1 (glioma, adherent, top dose 20 µM)	0.954	> 20
GI-ME-N (neuroblastoma, adherent, top dose 20 µM)	0.898	> 20
GMS-10 (glioma, adherent, top dose 20 µM)	0.988	> 20
GOTO (neuroblastoma, adherent, top dose 20 µM)	0.98	> 20
GP5d (large intestine, adherent, top dose 20 µM)	0.962	> 20
GR-ST (lymphoblastic leukaemia, suspension, top dose 20 µM)	0.903	> 20
GRANTA-519 (B-cell lymphoma, suspension, top dose 20 µM)	0.9	> 20
GT3TKB (stomach, adherent, top dose 20 µM)	0.99	> 20
H4 (glioma, adherent, top dose 20 µM)	0.958	> 20
H9 (lymphoid neoplasm, suspension, top dose 20 µM)	0.984	> 20
H290 (mesothelioma, adherent, top dose 20 µM)	0.975	> 20
H513 (mesothelioma, semi-adherent, top dose 20 µM)	0.973	> 20
H2369 (mesothelioma, adherent, top dose 20 µM)	0.984	> 20

Cell Line	AUC	IC50 [µM]
H2373 (mesothelioma, adherent, top dose 20 µM)	0.98	> 20
H2461 (mesothelioma, adherent, top dose 20 µM)	0.98	> 20
H2591 (mesothelioma, adherent, top dose 20 µM)	0.972	> 20
H2595 (mesothelioma, adherent, top dose 20 µM)	0.967	> 20
H2722 (mesothelioma, adherent, top dose 20 µM)	0.983	> 20
H2731 (mesothelioma, adherent, top dose 20 µM)	0.937	> 20
H2795 (mesothelioma, adherent, top dose 20 µM)	0.938	> 20
H2803 (mesothelioma, adherent, top dose 20 µM)	0.98	> 20
H2804 (mesothelioma, adherent, top dose 20 µM)	0.963	> 20
H2818 (mesothelioma, adherent, top dose 20 µM)	0.981	> 20
H3118 (head and neck, adherent, top dose 20 µM)	0.954	> 20
H3255 (lung adenocarcinoma, adherent, top dose 20 µM)	0.976	> 20
H-EMC-SS (chondrosarcoma, adherent, top dose 20 µM)	0.94	> 20
HA7-RCC (kidney, adherent, top dose 20 µM)	0.904	> 20
HAL-01 (lymphoblastic leukaemia, suspension, top dose 20 µM)	0.207	0.196
HARA (lung squamous cell carcinoma, adherent, top dose 20 µM)	0.945	> 20
HC-1 (hairy cell leukaemia, suspension, top dose 20 µM)	0.624	2.7

By IC50 is meant the dose at which the fit gives 50% viability; where the fit passes the top or lowest dose, that dose stands as a limit. AUC, from the same fit, is the share of area under the viability curve across the 256-fold dose range; values near 1 show little effect.
